Test results reported in PubChem BioAssay AID743262 (National Center for Advancing Translational Sciences (NCATS), 2014).
Among all 1,300 compounds or so, about 25 (2%) were called active. Another 9% or so got no clear call; they are omitted. Calls follow the shape of the dose curve; as a rule, active = well fitted activation curve with a large enough effect; inconclusive = small, poorly fitted or top-dose-only effect; inactive = flat fitted curve, though single readings scatter. The list shows a part of the results.

These molecules were tested against Glucagon-like peptide 1 receptor (Homo sapiens) (UniProt P43220) (assay: qHTS of GLP-1 Receptor Agonists: Hit Validation). Conditions: HEK293 GLP-1R, cAMP-response luciferase, 4-6 h; series mostly up to 46.1 µM; activation: at the top concentration.
Sequence of UniProt P43220 (P43220 whole entry, looked up): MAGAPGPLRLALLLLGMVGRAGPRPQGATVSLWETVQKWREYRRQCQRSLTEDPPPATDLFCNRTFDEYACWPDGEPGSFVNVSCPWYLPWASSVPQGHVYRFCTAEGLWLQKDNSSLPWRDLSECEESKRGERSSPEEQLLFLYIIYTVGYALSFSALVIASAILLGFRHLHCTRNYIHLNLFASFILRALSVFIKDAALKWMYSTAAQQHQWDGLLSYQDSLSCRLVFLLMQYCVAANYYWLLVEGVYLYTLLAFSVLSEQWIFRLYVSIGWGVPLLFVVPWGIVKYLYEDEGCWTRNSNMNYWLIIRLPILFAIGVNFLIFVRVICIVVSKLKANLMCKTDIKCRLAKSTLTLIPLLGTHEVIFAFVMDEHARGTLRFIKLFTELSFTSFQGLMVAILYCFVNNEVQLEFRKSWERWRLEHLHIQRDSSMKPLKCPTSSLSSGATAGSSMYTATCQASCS
In short: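 Luminescence from a cAMP-responsive luciferase reporter was read 12 min after detection reagent at RT. Before that, HEK293 cells stably expressing GLP-1R plus reporter, seeded 12 h earlier, were exposed to compound for 4-6 hr at 37 deg C.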
Also: % of control where 0% means no effect.

activation, inactive:
N#Cc1sc2nc(C3CC3)cc(-c3ccccc3)c2c1N 20.2%
CC(C)OC(=O)c1cc2c(OCC(O)CNC(C)(C)C)cccc2[nH]1 (stereo unspecified) 4.39%
CC(C)COC(=O)c1cc(=O)[nH]c2ccccc12 0.571%
CCCOc1ccc(N2C(=O)CC(N3CCN(CCN=CC4C(=O)CC(C)(C)CC4=O)CC3)C2=O)cc1 (stereo unspecified) -0.746%
CC(C)(C)C(=O)c1cnc(Nc2ccccc2)s1 3.5%
COc1ccc(C(C)=O)cc1COC(=O)c1ccc(N)c([N+](=O)[O-])c1 17%
N#C/C(=C\c1ccc(N2CCOCC2)o1)C(=O)NC1CCCCC1 4.42%
C=CCN=c1scc(-c2ccc(F)cc2)n1/N=C/c1ccccn1 29.6%
CCOC(=O)c1c(NC(=O)COC(=O)Cc2n[nH]c(=O)c3ccccc23)sc(C(=O)N(C)C)c1C 4.92%
Cc1ccc(CNc2cc(-c3nn4c(C)nnc4s3)ccc2C)s1 16.4%
CC(=O)Nc1cc(-c2ccccc2F)cn2c(-c3ccccc3)cnc12 3.65%
Oc1ccc(N=Cc2ccc(-c3cccs3)s2)cc1 2.69%
COc1ccc(C(=O)c2sc(Nc3ccccc3F)nc2N)cc1 13.6%
CC(C)CCOc1ccc(C2=NNC(=O)CC2)cc1 3.1%
CCOc1cc(/C=N/NC(=O)CSc2cccc3cccnc23)ccc1O 7.22%
C#CC(CC)(CC)NC(=S)Nc1ccc(S(N)(=O)=O)cc1 0.266%
CCOc1ccc(C(C)=O)cc1Cn1nc(C(=O)O)c2ccccc2c1=O 21.1%
CC(C)(C)n1cnc2cc(NCc3ccc(Br)cc3)ccc21 4.16%
COc1cc2c(cc1OC)CN(C(=O)CCCN1C(=O)c3ccccc3C1=O)CC2 4.68%
CCOC(=O)c1oc2ccccc2c1COC(=O)CNC(=O)c1ccccc1OC 3.94%
COc1ccc(Nc2ncnc3onc(C)c23)cc1Cl 0.196%
CCOC(=O)C1=C(CSc2nc(-c3ccncc3)ccc2C#N)OC(N)=C(C#N)C1c1cccnc1 (stereo unspecified) 0.471%
CC(C(=O)O)c1ccc(-c2ccccc2)c(F)c1 (stereo unspecified) 0.217%
CCOC(=O)c1cc(-c2cccc(C(F)(F)F)c2)nc2nc(SC)[nH]c(=O)c12 -0.146%
COc1ccc(/C=N/NC(=O)CCSc2nc3ccccc3s2)cc1OC 23.3%
CC(C)(C)C(=O)N1CCN(c2ccc([N+](=O)[O-])c(NCC3CCCO3)c2)CC1 (stereo unspecified) 3.8%
c1ccc(Nc2c3c(nc4ncnn24)CCC3)cc1 4.21%
N#Cc1cccn1-c1nccc(-c2cccs2)n1 6.66%
CCOc1ccc(CN2CCC(n3nccc3NC(=O)c3ccccc3OC)CC2)cc1 -0.286%
CCCCCCCCC(=O)N/N=C/c1ccccn1 -0.825%
CCCCN(CC)C(=O)c1cc2cc3ccc(OC)cc3nc2o1 9.49%
C/C(=N/NC(=O)CCc1ccccc1)c1ccc2c(c1)OCO2 3.43%
CCOC(=O)N1CCN(C(c2cccnc2)c2ccc3cccnc3c2O)CC1 (stereo unspecified) 22.8%
CCCc1cc(-c2ccc(O)c(OCC)c2)c(C#N)c(N)n1 10.5%
CC1CN(c2nc(N(C)c3ccccc3)nc(N)c2[N+](=O)[O-])CC(C)O1 (stereo unspecified) 4.07%
CCOc1ccc(CN(C)C(=O)c2cc3ccccc3o2)cc1OC 2.47%
COc1cc(OC)c(C(=O)OC(C)C(=O)Nc2cccc(C(F)(F)F)c2)cc1OC (stereo unspecified) 1.4%
COc1cccc(C=NNC(=O)c2ccncc2)c1O -0.927%
C/C(=N\Nc1nc2ccccc2[nH]1)c1ccc(C)o1 -0.323%
Cc1c(C)n(Cc2ccccc2)c2ncnc(NCCO)c12 -0.311%
N#Cc1c(-c2ccc(F)cc2)noc1N -0.686%
COc1ccc(N(CC(=O)N/N=C/c2ccc(OC)c(OC)c2)S(=O)(=O)c2ccccc2)cc1 22.5%
Cc1cc(NC(=O)CCC(=O)N(Cc2cccnc2)C(C(=O)NC(C)(C)C)c2ccccc2Cl)no1 (stereo unspecified) 0.481%
C/C(=N\NC(=O)COc1cccc(Cl)c1)c1ccc2c(c1)OCCO2 -0.489%
O=C(O)c1ccc(N/N=C/c2ccc(-c3ccccc3Cl)o2)cc1 -0.0929%
Cc1c(C(=O)NCc2cccs2)oc2ccc(Br)cc12 4.96%
COc1ccc(CC(=O)O/N=C(\N)c2ccc(Br)cc2)cc1OC 0.604%
Cc1noc(C)c1CSc1nc2ccccc2c(=O)n1-c1ccccc1 19.4%
CCC1(c2ccccc2)NC(=O)N(CC(=O)NCc2ccc(OC)cc2)C1=O (stereo unspecified) -0.954%
COc1ccc(/C=C2/C(=O)OCc3cc(OC)c(OC)cc32)c(OC)c1 16.4%
CC1(C(=O)NCc2cccs2)Cc2c(-c3ccc4c(c3)OCO4)ccnc2O1 (stereo unspecified) 10.9%
ClCCn1cnc2c(SCc3ccccc3)ncnc21 10.5%
COc1ccc(-c2cc(=O)c3cc(O)ccc3o2)cc1 2.45%
CSc1nnc(C)c(/C=C/Nc2ccc(C)cc2)n1 9.58%
O=C(N/N=C/C(Br)=C/c1ccccc1)c1cccs1 6.76%
CN1CCN(c2ccccc2NC(=O)c2ccc(-c3ccc(Cl)cc3Cl)o2)CC1 27.1%
Cc1noc(C)c1COc1ccccc1C(=O)Nc1cccc(S(=O)(=O)N(C)C)c1 1.43%
COc1ccc(OC)c(N/C=C/C(=O)c2ccc(OC)c(OC)c2)c1 13.3%
CCOC(=O)/C(C#N)=C/Nc1cc(OC)ccc1OC 2.12%
CCOC(=O)Cn1cnc2scc(-c3ccccc3)c2c1=O -0.767%
COc1cc(/C=N/NC(=O)CCn2cnc(-c3ccccc3)c2-c2ccccc2)ccc1O 11.2%
O=C1C(Cl)=C(NCC2CCCO2)C(=O)N1CCc1ccccc1 (stereo unspecified) -0.426%
Cc1ccccc1-n1c(SCc2c(C)noc2C)nnc1-c1ccncc1 -0.312%
COc1ccc(C2=CC(=O)CC(c3ccccc3)C2)cc1 (stereo unspecified) 1.77%
C=CCc1c(C)nc(-c2ccccc2)nc1Nc1ccccc1O 12.3%
COc1ccc(-c2ccc(SCC(=O)NC3CCCC3)nn2)cc1OC 8.02%
Cc1ccsc1C(=O)Nc1cc(C(C)(C)C)nn1-c1ccccc1 -0.436%
C=CCn1c(SCC(=O)c2ccc(CNC(C)=O)o2)nc2scc(C3CC3)c2c1=O 17.3%
N#CCCNS(=O)(=O)c1ccc(C(=O)OCC2CCCCC2)cc1 4.23%
CC(C)(C)c1ccc(C(=O)O/N=C(\N)Cc2cccs2)cc1 29.7%
Cc1nc(C)c(-c2csc(Nc3cccc(O)c3)n2)s1 8.17%
O=c1[nH]n(CC2COC3(CCCCC3)O2)c(=O)c2ccccc12 (stereo unspecified) 5.01%
CCCSc1nc2c(c(=O)[nH]c(=O)n2C)n1CCc1ccccc1 2.47%
CCOC(=O)C1CCN(C2=NC(=O)/C(=C/c3ccc(OC)c(OC)c3)S2)CC1 17.3%
CC(C)(C)Nc1nc(-c2ccc3c(c2)CCN3C(=O)C2CC2)cs1 8.67%
COc1ccc(/C(=C\Nc2ccc(C)c(C)c2)C(C)=O)cc1OC 2.94%
COc1ccccc1CC(=O)O/N=C(\N)Cc1cccc2ccccc12 28.6%
NS(=O)(=O)c1ccc(CCNc2nc(C(F)(F)F)nc3ccccc23)cc1 10.5%
COc1ccc(-c2csc(C(C)(O)c3ccccc3)n2)cc1OC (stereo unspecified) 9.05%
Cc1cc(C)c(C#N)c(SCc2nnc(-c3ccccc3[N+](=O)[O-])o2)n1 15.7%
CCOC(=O)c1c(CC(C)C)csc1NC=O 18.6%
Cc1nc(C)c(-c2ccc(SCc3ccccc3F)nn2)s1 2.44%
Cc1nc2nc(SCC(=O)c3cccc([N+](=O)[O-])c3)[nH]c2cc1Br 4.97%
CCOc1cc2c(C#N)c(N3CCOCC3)nc(N)c2c(N)n1 7.64%
COc1ccc(OC)c(-c2csc(NC(=O)Cc3ccccc3F)n2)c1 3.61%
CCOC(=O)c1c(C)[nH]c(C)c1C(=O)COC(=O)c1sccc1C 0.504%
COc1cc(/C=N/Nc2nc3ccccc3s2)ccc1O 14.3%
Brc1ccc2nc(-c3ccccc3)c(Cc3ccccc3)n2c1 7.48%
C=CCc1ccc(OCCOc2ccc(/C=N/n3cnnc3)cc2OCC)c(OC)c1 1.87%
COC(=O)c1cc(C#N)c(N2CCOCC2)nc1C 0.345%
Cc1cc(NCCCn2ccnc2)n2nc(C)c(-c3ccccc3)c2n1 2.83%
COc1ccc(-c2c(C(C)=O)c(C)nc3sc4c(=N)n(N)cnc4c23)cc1 2.21%
COc1ccc(C2=NN(C(=O)CSc3nc4ncc(Cl)cc4[nH]3)C(c3ccco3)C2)cc1 (stereo unspecified) 11.5%
COc1ccccc1/C=N/OCc1ccc(C#N)cc1 2.31%
CCSc1cc(N2CCCC2)nc(-c2ccccc2)n1 1.33%
NC(=O)CSc1nc2ccccc2n1Cc1ccccc1F 1.7%
CC(=O)Nc1cc(-c2cccc(C)c2)cn2c(-c3ccc(S(C)(=O)=O)cc3)cnc12 23.2%
Cc1nc(C(=O)N2CCc3c([nH]c4ccccc34)C2c2cc(F)ccc2F)cs1 (stereo unspecified) -0.68%
COc1ccc(-c2cc(C(F)(F)F)n3ncc(C(=O)N(C)Cc4ccccc4)c3n2)cc1 13.9%
COc1cc2c(cc1OC)CN(C(=O)c1oc3ccccc3c1C)CC2 3.46%
CC1CCN(CC(=O)n2c3c(c4ccccc42)CCCC3)CC1 1.05%
O=C1C2C3C=CC(CC3)C2C(=O)N1/N=C/c1ccccc1O (stereo unspecified) -0.753%
Cc1ncsc1CCSc1nc2ccccc2c(=O)n1C 9.28%
C/C(=N\NC(=S)NCCc1ccccc1)c1ccc(Cl)cc1 7.83%
COC(=O)CSc1nnc(-c2ccc(OC)c(OC)c2)o1 3.18%
Cc1onc(-c2ccccc2Cl)c1-c1nc(-c2ccncc2)no1 13.2%
CCc1ccc(C(=O)COC(=O)c2cc([N+](=O)[O-])ccc2N2CCOCC2)cc1 14.8%
CSc1ccc(CN2CCC2(C)C(=O)NCc2ccc3c(c2)OCO3)cc1 (stereo unspecified) 2.83%
Cc1cc(C)n2ncc(C(=O)NCCc3ccccc3)c2n1 4.32%
CC1(C)CC(=O)C2=C(C1)N(CC1CCCO1)C(=O)NC2(C(F)(F)F)C(F)(F)F (stereo unspecified) -1.07%
COc1ccc(NC(=O)C2(C)Cc3c(-c4ccc5c(c4)OCO5)ccnc3O2)cc1 (stereo unspecified) 13.3%
